In the supplement of paper PMC10369915:
This is one part of the list. Cut-off read from the data, not from the text of the source: active = 3.2 or more and inactive = the rest. Only a few entries rise above the background.

Key:
Test in all cases: enrichment score (SH2-bound / input frequency) (ratio); bacterial display of known human phosphotyrosine sites (pTyr-Var adds point mutants) read by sequencing; higher = stronger binding; tyrosines were phosphorylated by kinases first
Details in all cases: peptide library: pTyr-Var
[1] = biological target: SHP2 C-SH2 domain E139D
[2] = biological target: SHP2 C-SH2 domain wild-type
[3] = biological target: SHP2 N-SH2 domain L43F
[4] = biological target: SHP2 N-SH2 domain T42A
[5] = biological target: SHP2 N-SH2 domain T52S
[6] = biological target: SHP2 N-SH2 domain wild-type

Measured: enrichment score
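Note: displayed peptides selected on beads carrying the immobilized SH2 domain, with library peptides lacking any tyrosine serving as negative controls.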

B1: FRK_Y99_I100V (peptide)
chain: QQLQGYVPSNY
inactive: [1] 0.914 | [2] 0.747 | [3] 0.923 | [4] 0.892 | [5] 0.756 | [6] 0.941

B2: FOXL2_Y91 (peptide)
chain: AKFPFYEKNKK
inactive: [1] 1.83 | [2] 1.62 | [3] 1.51 | [4] 1.34 | [5] 1.63 | [6] 1.68

B3: FOXL2_Y81 (peptide)
chain: TLSGIYQYIIA
inactive: [6] 3
active: [1] 3.5 | [2] 3.33 | [3] 3.3 | [4] 3.98 | [5] 3.63

B4: FOXC1_Y159 (peptide)
chain: LDPDSYNMFEN
inactive: [1] 0.341 | [2] 0.366 | [3] 0.451 | [4] 0.421 | [5] 0.337 | [6] 0.389

B5: FNDC3B_Y175_T179S_YF (peptide)
chain: EIIPFYGMSSF
inactive: [1] 0.819 | [2] 1.05 | [3] 0.844 | [4] 0.933 | [5] 1.03 | [6] 1.02

B6: FN1_Y1970_L1974R (peptide)
chain: QPGTDYKIYRY
inactive: [1] 0.937 | [2] 0.675 | [3] 0.66 | [4] 0.613 | [5] 0.788 | [6] 0.939

B7: FLVCR2_Y325_A326V (peptide)
chain: NAGAFYVLSTL
inactive: [1] 0.722 | [2] 0.86 | [3] 0.713 | [4] 0.671 | [5] 0.788 | [6] 0.868

B8: FREM2_Y2158 (peptide)
chain: TGDVQYRSSVR
inactive: [1] 0.432 | [2] 0.493 | [3] 0.407 | [4] 0.439 | [5] 0.55 | [6] 0.489

B9: FNDC1_Y1281_Q1280R (peptide)
chain: HPWPRYTTRAP
inactive: [1] 0.24 | [2] 0.296 | [3] 0.306 | [4] 0.428 | [5] 0.306 | [6] 0.327

B10: FN1_Y106_N104S (peptide)
chain: YTGSTYRVGDT
inactive: [1] 0.542 | [2] 0.611 | [3] 0.676 | [4] 0.568 | [5] 0.522 | [6] 0.697

B11: FREM2_Y2061_R2066C (peptide)
chain: DAGTDYVGISC
inactive: [1] 0.674 | [2] 0.69 | [3] 0.553 | [4] 0.511 | [5] 0.628 | [6] 0.957

B12: FRK_Y132 (peptide)
chain: EKQLLYSENKT
inactive: [1] 1.04 | [2] 0.887 | [3] 0.973 | [4] 0.83 | [5] 0.867 | [6] 1.4

B13: FOXG1_Y186 (peptide)
chain: KPPFSYNALIM
inactive: [1] 0.569 | [2] 0.565 | [3] 0.609 | [4] 0.48 | [5] 0.496 | [6] 0.634

B14: FOXL2_Y81_I80T_YF (peptide)
chain: TLSGTYQFIIA
inactive: [1] 1.94 | [2] 1.96 | [3] 1.77 | [4] 1.84 | [5] 2.01 | [6] 1.53

B15: FOXL2_Y215_Y215C (peptide)
chain: PSPMPCASCQM
inactive: [1] 0.957 | [2] 0.897 | [3] 0.768 | [4] 0.911 | [5] 1.02 | [6] 0.796

B16: FNDC3B_Y180_YF (peptide)
chain: FGMSTYITRED
inactive: [1] 1.26 | [2] 1.29 | [3] 1.08 | [4] 1.22 | [5] 1.25 | [6] 1.16

B17: FN1_Y1970_YF (peptide)
chain: QPGTDYKIFLF
inactive: [1] 0.695 | [2] 0.79 | [3] 0.615 | [4] 0.837 | [5] 0.598 | [6] 0.967

B18: FOXL2_Y186_YF (peptide)
chain: AGADGYGFLAP
inactive: [1] 0.469 | [2] 0.567 | [3] 0.526 | [4] 0.526 | [5] 0.459 | [6] 0.935

B19: FOXL2_Y83_YF (peptide)
chain: SGIFQYIIAKF
inactive: [1] 2.6 | [2] 1.92 | [3] 1.81 | [4] 2.21 | [5] 2.35 | [6] 2.22

B20: FOXC1_Y159_M161V (peptide)
chain: LDPDSYNVFEN
inactive: [1] 0.706 | [2] 0.804 | [3] 0.883 | [4] 0.599 | [5] 0.768 | [6] 0.892

B21: FRK_Y99 (peptide)
chain: QQLQGYIPSNY
inactive: [1] 0.986 | [2] 1.22 | [3] 1.09 | [4] 0.475 | [5] 0.923 | [6] 0.994

B22: FOXL2_Y83 (peptide)
chain: SGIYQYIIAKF
inactive: [1] 2.7 | [2] 2.53 | [3] 3.05 | [6] 2.44
active: [4] 5.77 | [5] 3.3

B23: FMNL2_Y352_Y352C (peptide)
chain: LGLDECLDKLK
inactive: [1] 1.14 | [2] 1.26 | [3] 1.64 | [4] 0.977 | [5] 1.1 | [6] 1.26

B24: FOXL2_Y215_S217F (peptide)
chain: PSPMPYAFCQM
inactive: [1] 0.684 | [2] 0.994 | [3] 0.869 | [4] 0.766 | [5] 0.577 | [6] 1.12

B25: FOXI1_Y126 (peptide)
chain: LVRPPYSYSAL
inactive: [1] 1.15 | [2] 1.15 | [3] 0.87 | [4] 2.95 | [5] 0.983 | [6] 1

B26: FN1_Y1975_L1974R_YF (peptide)
chain: FKIFRYTLNDN
inactive: [1] 1.04 | [2] 0.844 | [3] 1.05 | [4] 1.07 | [5] 0.935 | [6] 0.943

B27: FN1_Y1970 (peptide)
chain: QPGTDYKIYLY
inactive: [1] 0.817 | [2] 0.863 | [3] 0.803 | [4] 0.843 | [5] 0.59 | [6] 0.974

B28: FOXL2_Y83_I84N_YF (peptide)
chain: SGIFQYNIAKF
inactive: [1] 1.5 | [2] 2.18 | [3] 1.83 | [4] 1.7 | [5] 2.43 | [6] 1.72

B29: FOXE3_Y108_E103K (peptide)
chain: KRFAFYRDSPR
inactive: [1] 0.725 | [2] 0.707 | [3] 0.765 | [4] 0.696 | [5] 0.835 | [6] 0.762

B30: FOXL2_Y91_F90S (peptide)
chain: AKFPSYEKNKK
inactive: [1] 0.685 | [2] 0.497 | [3] 0.529 | [4] 0.538 | [5] 0.698 | [6] 1.04

B31: FOXL2_Y83_I84S (peptide)
chain: SGIYQYSIAKF
inactive: [1] 1.76 | [6] 1.72
active: [2] 5.18 | [3] 4.59 | [4] 7.77 | [5] 6.15

B32: FOXP3_Y342 (peptide)
chain: RPPFTYATLIR
inactive: [1] 0.98 | [2] 1.99 | [3] 0.767 | [4] 1.99 | [5] 0.767 | [6] 0.94

B33: FOXL2_Y83_I80T (peptide)
chain: SGTYQYIIAKF
active: [4] 5.1
inactive: [1] 1.62 | [2] 1.63 | [3] 2.4 | [5] 2.84 | [6] 1.55

B34: FOXL2_Y81_I84N_YF (peptide)
chain: TLSGIYQFNIA
inactive: [1] 1.75 | [2] 1.4 | [3] 1.9 | [4] 1.5 | [5] 1.8 | [6] 1.65

B35: FNDC3B_Y175_T179S (peptide)
chain: EIIPFYGMSSY
inactive: [1] 1.13 | [2] 1 | [3] 1.07 | [4] 1 | [5] 1.18 | [6] 1.08

B36: FOXL2_Y81_I84N (peptide)
chain: TLSGIYQYNIA
inactive: [1] 1.26 | [2] 1.07 | [3] 1.94 | [4] 1.09 | [5] 2.06 | [6] 0.936

B37: FOXG1_Y246 (peptide)
chain: KVPRHYDDPGK
inactive: [1] 1.22 | [2] 1.56 | [3] 1.12 | [4] 1.53 | [5] 1.21 | [6] 1.75
